These results are taken from publication PMC6919601, “Identification of Plasmodium dipeptidyl aminopeptidase allosteric inhibitors by high throughput screening” (PLoS ONE, 2019).

Several values for one entry are separate records, joined by “and”; a condition that tells them apart may be missing. Equal entries are not always repeated. Out of some 110,000 compounds screened, about 230 (0.21%) showed an effect of 50% or more. Some of the results follow.
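Note: 30 min substrate incubation versus DMSO and 10 µM JCP410 controls.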

For this test, the target named is DPAP1 (Plasmodium falciparum, UniProt Q8IIJ9). Briefly: primary screen, percent inhibition; read by cleavage of a fluorogenic dipeptide substrate; higher = more effect of the substance. More on the design: species or system P. falciparum D10 trophozoite lysates; single well.
DPAP1, sequence (Q8IIJ9 whole entry, looked up): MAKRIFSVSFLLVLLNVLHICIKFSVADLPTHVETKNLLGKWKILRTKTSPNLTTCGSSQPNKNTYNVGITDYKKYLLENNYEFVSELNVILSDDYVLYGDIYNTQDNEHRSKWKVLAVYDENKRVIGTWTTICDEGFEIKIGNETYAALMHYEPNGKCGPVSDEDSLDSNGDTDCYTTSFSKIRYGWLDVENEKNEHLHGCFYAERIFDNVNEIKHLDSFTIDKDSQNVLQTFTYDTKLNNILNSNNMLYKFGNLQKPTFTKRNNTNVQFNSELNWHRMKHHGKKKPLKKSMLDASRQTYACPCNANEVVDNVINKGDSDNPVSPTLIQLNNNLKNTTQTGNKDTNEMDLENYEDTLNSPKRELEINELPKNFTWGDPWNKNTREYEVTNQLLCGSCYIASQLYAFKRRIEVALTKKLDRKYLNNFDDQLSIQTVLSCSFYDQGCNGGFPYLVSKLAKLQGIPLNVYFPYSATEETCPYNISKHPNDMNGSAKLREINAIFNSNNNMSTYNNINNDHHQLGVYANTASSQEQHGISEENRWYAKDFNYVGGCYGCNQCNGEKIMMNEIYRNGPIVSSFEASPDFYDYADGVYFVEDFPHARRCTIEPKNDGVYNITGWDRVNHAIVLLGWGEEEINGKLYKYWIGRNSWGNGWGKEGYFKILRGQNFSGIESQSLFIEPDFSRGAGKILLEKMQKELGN
For the molecule `COc1ccc(S(=O)(=O)N2CCc3ccccc3C2)cc1`, the “% Inhibition @ 10 uM” value is reported as 2.01%. In the case of `COc1ccc(S(=O)(=O)N(C)CC(=O)N2CCN(c3ccccc3)CC2)cc1OC` it was 2.84%; in that of `CNc1cnn(C23CC4CC(CC(CC(=O)O)(C4)C2)C3)c(=O)c1Cl`, 0.0579%; in that of `COc1ccc(NC(=O)COc2cc(C)ccc2C)cc1`, -5.13%. In the case of `CC(C)c1cc(C(N)=O)c(NC(=O)Cc2ccc(Cl)c(Cl)c2)s1` it was -5.81%; in that of `COc1ccc2cc([C@H](C)OC(=O)c3c(C)ncc4c3COC(C)OC4)ccc2c1` (stereo partly drawn), 4.94%; in that of `O=C(O)c1ccc(/C=C2/NC(=O)N(Cc3ccc(F)cc3)C2=O)cc1`, -3.45%.

Turning to `Cc1ccc(S(N)(=O)=O)cc1NC(=O)Nc1ccc(Cl)c(Cl)c1`, the “% Inhibition @ 10 uM” value came out at 5.97%. The value for `COc1ccc(OCC(O)CN2CCC(C)CC2)cc1` (stereo not drawn) was -0.268%; that for `CC1(C)CC(=O)C2=C(C1)N(c1sc3c(c1C#N)CCCC3)C(N)=C(C#N)C2c1ccc2c(c1)OCO2` (stereo not drawn) was -6.17%.

Take `Cc1cc(C)c2c(n1)SCC(=O)N2CCCC(=O)NCCCN1CC(C)CC(C)C1` (stereo not drawn): the “% Inhibition @ 10 uM” value is -6.01%. The value for `O=C(Nc1ccccc1)c1ccccc1NC(=O)c1ccccc1C(=O)O` was 3.83%. Turning to `CCSc1nnc(NC(=O)C2Cc3ccc(C)cc3C(=O)O2)s1` (stereo not drawn), the “% Inhibition @ 10 uM” value was found to be 5.12%. In the case of `CNCc1ccccc1Sc1cc(O)ccc1O` it was -3.65%; in that of `CC1CC(C)CN(c2ncnc3onc(-c4ccc(F)cc4)c23)C1` (stereo not drawn), 3.6%; in that of `O=C1NC(=O)/C(=C/c2ccccc2OCc2ccccc2)S1`, -4.18%. The value for `O=C(Nc1ccc(Cl)cc1)c1ccc2nc3ccccc3nc2c1` was -3.79%; that for `CCCc1[nH]nc2c1C(c1ccccc1)C(C#N)=C(N)O2` (stereo not drawn) was 0.673%.

Consider `CN(C)CCCNC(=O)c1ccc(Cl)cc1Cl`, for which the “% Inhibition @ 10 uM” value is on record as -1.6%. As for `FC(F)(F)c1ccc2nnc(-c3cccc(Cl)c3Cl)n2c1`, the “% Inhibition @ 10 uM” value is given as -3.09%. The value for `Cc1ccc(N2CCN(CCCCN3C(=O)C4CCCN4C3=O)CC2)cc1` (stereo not drawn) was -1.38%; that for `CCN1CCN(c2sc(S(=O)(=O)CC)nc2S(=O)(=O)c2ccc(Cl)cc2)CC1` was -4.04%; that for `N=c1oc2ccc([N+](=O)[O-])cc2cc1C(N)=O` was 4.88%. In the case of `Cc1ccccc1N(CC(=O)Nc1ccc2c(c1)OCO2)S(=O)(=O)c1ccccc1` it was -1.55% and 1.02%; in that of `C(=C\c1cc(-c2ccccc2)[nH]n1)/c1ccccc1`, 3.01%; in that of `COc1ccc(NC(=O)c2ccc(OC)c(OC)c2)c(OC)c1`, 13.5%. In the case of `Cc1cccn2c(=O)c(/C=C(\C#N)C(=O)NCCCOC(C)C)c(Oc3ccccc3)nc12` it was 0.101%. For `CCCCOc1ccc(C(=O)Nc2cc(C)ccn2)cc1`, the “% Inhibition @ 10 uM” value was determined as 5.98%. The value for `COc1cc(OC)c(OC)cc1CN1CCC(O)CC1` was 3.1%. In the case of `CCN1CCN(Cc2ccccc2)CC1` it was 3.9%; in that of `Nc1cccc(-c2cc(C(=O)O)c3cc(Br)ccc3n2)c1`, 1.59%; in that of `CC(C)CC(NC(=O)c1ccc(NC(=O)NCCc2c[nH]c3ccccc23)cc1)C(=O)NCC#N` (stereo not drawn), -11%. As to `CCc1nc2cccnc2n1-c1ccc(C(=O)N2CCN(C(=O)c3ccco3)CC2)cc1`, the “% Inhibition @ 10 uM” value is on record as -3.29%. In the case of `CC(C)(C)S(=O)(=O)c1ccc(N)nc1` it was -0.0372%. With `Cc1ccccc1CSc1nnc(-c2ccccc2)c(O)n1`, the “% Inhibition @ 10 uM” value is -0.0626%.

As for `COc1ccc(S(=O)(=O)N2CCN(Cc3cc(OC)c(OC)cc3OC)CC2)cc1`, the “% Inhibition @ 10 uM” value is listed as -1.2%. With `O=S(=O)(NCC1CCCCC1)c1ccc(-n2cnnn2)cc1`, the “% Inhibition @ 10 uM” value is listed as -4.67%. The value for `Cc1ccnc(NS(=O)(=O)c2ccc(Br)cc2)c1` was -2.03%; that for `CC(C)c1ccc(CN(C(=O)c2cc(=O)c3ccccc3o2)C2CCS(=O)(=O)C2)cc1` (stereo not drawn) was 1.9%.

In the case of `Cc1cccc(Oc2nc3c(C)cccn3c(=O)c2/C=C(\C#N)C(=O)N2CCCCC2)c1C`, the “% Inhibition @ 10 uM” value is -5.1%. In the case of `COc1ccc(C(=O)c2nc3c(n2O)CCCC3)cc1OC` it was -5.51%; in that of `c1ccc(CCSCc2nc3ccccc3[nH]2)cc1`, 7.77%; in that of `CCOC(=O)C1=C(C)NC(=O)N(C(C)=O)C1c1cccc(Oc2ccccc2)c1` (stereo not drawn), -5.63%. With `O=C(O)C1CC(O)CN1Cc1ccccc1` (stereo not drawn), the “% Inhibition @ 10 uM” value came out at 3.01%. The value for `O=C(NCc1cccc(Cl)c1)c1ccc(-n2cnc3cccnc32)cc1` was 3.54%; that for `COc1ccccc1CC(=O)N(Cc1nc(-c2cccc(C)c2)no1)C(C)C` was -8.56%; that for `CCc1n(CC(O)COc2ccccc2OC)c2ccccc2[n+]1C` (stereo not drawn) was 13.1%.

On to `COc1cccc(N(CC(=O)Nc2ccccc2Br)S(=O)(=O)c2ccccc2)c1`, for which the “% Inhibition @ 10 uM” value is -1.43%. The value for `CCCc1nc2nc(C)c(NS(=O)(=O)c3ccc(Br)cc3)c(O)n2n1` was 2.5%.

`C=CCc1cc(/C=C2/SC(NC(C)=O)=NC2=O)cc(OCC)c1O`: the “% Inhibition @ 10 uM” value turned out to be 2.63%. In the case of `CCCCSc1nnc(NC(=O)c2cc(=O)c3ccccc3o2)s1` it was 0.248%; in that of `CC(C)(C)c1[nH]nc2c1C(c1ccccc1)C(C#N)=C(N)O2` (stereo not drawn), -4.41%; in that of `NC(=O)c1c(NC(=O)Cn2c(=O)oc3ccccc32)sc2c1CCCC2`, -2.77%. The value for `O=C(Cn1sc2ccccc2c1=O)NCc1cccs1` was -10.4%.

On to `N#Cc1cc2c(nc1SCCCN1C(=O)c3ccccc3C1=O)CCC2`, for which the “% Inhibition @ 10 uM” value was determined as 1.57%. In the case of `CCc1ccc(N2C(=O)c3ccc(NC(C)=O)cc3C2=O)cc1` it was 0.431%; in that of `O=C(Cn1c(C(F)(F)F)nc2ccccc21)NCCc1ccccc1`, 2.99%.

On to `CCOc1cc2c(cc1/C=C(\C#N)c1cccc(C(F)(F)F)c1)OCO2`, for which the “% Inhibition @ 10 uM” value stood at 4.85%. In the case of `Cc1ccccc1OCC(=O)Nc1cccc2ccccc12` it was -4.06%; in that of `O=C(Cc1ccc(Br)cc1)N1CCN(c2ccc(F)cc2)CC1`, -1.36%. In the case of `COc1ccc(OC)c(CCNC(=O)C(C)n2nc(C)c3c(C)n(-c4ccccc4)nc3c2=O)c1` (stereo not drawn) it was 2.65%; in that of `COc1ccc(C2C(=O)N(CCc3ccccc3)CC(=O)N2C2CCCCCCC2)cc1` (stereo not drawn), -2.26%; in that of `Cc1cccc(Cc2c(C)nc3nc(SCC(=O)NCc4ccco4)nn3c2C)c1`, -0.363%. With `CCN(CC)c1ccc(C2C(C(=O)OC)=C(C)N=C(C)/C2=C(/O)OC)cc1` (stereo not drawn), the “% Inhibition @ 10 uM” value was 0.392%. The value for `CC(=O)N1CN(C2CC(C)(C)NC(C)(C)C2)Cc2c1sc1c2CCCC1` was -2.05%; that for `Fc1ccccc1OCCCCN1CCCCC1` was -4.58%. In the case of `C=CCN1C(=O)N/C(=C/c2cc(Cl)c(O)c(OC)c2)C1=O` it was -3.29%; in that of `Cc1ccc(NC(=O)COc2ccc(Br)cc2)c(Br)c1`, 7.39%; in that of `CN(C)CCCN(C(=O)c1ccc(Cl)s1)c1nc2cc3c(cc2s1)OCO3`, -4.05%. In the case of `CCN1C(=O)C(=CNc2ccccc2-c2ccccc2)C(=O)N(CC)C1=O` it was -2.87%; in that of `CCOC(=O)c1c(S(=O)(=O)NCCc2ccc(C)cc2)c(C)n(C)c1C`, 5.01%. Turning to `Cc1ccc(S(=O)(=O)NCc2ccc(C(=O)NC(C)c3ccc4c(c3)OCCO4)cc2)cc1` (stereo not drawn), the “% Inhibition @ 10 uM” value came out at 11.1%. In the case of `O=C(CNC(=O)Cn1ccc2ccccc2c1=O)NCc1ccc(F)cc1` it was -3.27%; in that of `COc1cccc(-c2[nH]c3c(C#N)cnn3c2NCCC(C)C)c1`, 76.4%; in that of `CCCn1c2ccccc2c2cnn(CC(=O)N(CCCOCC)Cc3ccco3)c(=O)c21`, 3.72%. As for `CSc1nc2n(n1)C(c1ccc(Cl)cc1)C1=C(O)CC(C)(C)CC1=N2` (stereo not drawn), the “% Inhibition @ 10 uM” value is -0.68%.

With `Cc1c(C(=O)/C=C/c2ccc(Br)cc2)c2cc(O)ccc2n1C`, the “% Inhibition @ 10 uM” value is given as -0.687%.

Consider `Cc1nnc2[nH]c(=O)n(C)c(=O)c2n1`, for which the “% Inhibition @ 10 uM” value is 0.569%.

Take `CCC(Sc1nc(O)c(C#N)c(-c2ccc(OC)cc2)n1)C(=O)Nc1cc(C)on1` (stereo not drawn): the “% Inhibition @ 10 uM” value is -4.12%. The value for `O=c1ccc(=O)n(CN2CCOCC2)[nH]1` was -4.03%; that for `NS(=O)(=O)c1ccc(Nc2nc(-c3cccs3)cs2)cc1` was -1.66%; that for `CN1CCN(Cc2ccc([N+](=O)[O-])s2)CC1` was 4.81%. The value for `COc1cccc(C(=O)N2CCN(c3ccccc3)CC2)c1` was -0.0947%.

`Cc1ccc(OCCn2nnc3sc4c(c3c2=O)CCCC4)cc1`: the “% Inhibition @ 10 uM” value turned out to be 0.758%. On to `CC1CCc2c(sc(NC(=O)c3cccc(C(=O)O)c3)c2C(N)=O)C1` (stereo not drawn), for which the “% Inhibition @ 10 uM” value is 0.205%. The value for `CCOC(=O)c1c(C)n(-c2ccc(C)cc2)c2ccc(OCC(O)Cn3ccnc3)cc12` (stereo not drawn) was 1.63%. With `CC(=O)c1cccc(-c2cccc(C(=O)N[C@@H](CC(C)C)C(=O)NCC#N)c2)c1`, the “% Inhibition @ 10 uM” value is recorded as -5.2%. The value for `COc1ccc(CN2CCN(C(=O)C3=C(C)C(=O)OC34CCCCC4)CC2)c(OC)c1OC` was -8.69%; that for `O=C1c2ccccc2C(=O)c2cc(OCC(O)Cn3cnc4ccccc43)ccc21` (stereo not drawn) was -1.6%; that for `O=c1cccc2n1C[C@H]1C[C@@H]2CN(Cc2ccccc2F)C1` was -1.85%. `Cc1nn(-c2ccccc2)c2c1N(CCCC(=O)NC1CCCCC1)C(=O)CS2`: the “% Inhibition @ 10 uM” value was -3.75%. In the case of `Oc1nc(SCc2cccc(F)c2)nc2c1cnn2-c1ccccc1`, the “% Inhibition @ 10 uM” value was -3.35%. In the case of `CCN(CC)CC(=O)N1CCN(C(=O)CN(CC)CC)CC1` it was -3.16%; in that of `Cc1cc(C)n(-c2cccc(Cl)c2)c(=O)c1C(=O)O`, -12.1%.

Take `CCOC(=O)C1=C(C)N(C)C(=O)NC1c1ccccc1OCC` (stereo not drawn): the “% Inhibition @ 10 uM” value is given as -3.14%.

In the case of `COc1ccc(S(=O)(=O)N[C@@H](CC(C)C)C(=O)O)cc1`, the “% Inhibition @ 10 uM” value was -7.23%. The value for `O=C(C1CCCN(c2nc3ccccc3n3cccc23)C1)N1CCN(c2ccccn2)CC1` (stereo not drawn) was 10%; that for `O=c1oc2ccccc2cc1-c1c(O)nc2ccccc2c1O` was -3.74%; that for `Cc1c(Nc2nc3ccccc3nc2NS(=O)(=O)c2ccccc2)c(=O)n(-c2ccccc2)n1C` was -8.11%.
